# Results: PubChem BioAssay AID1745853 (National Center for Advancing Translational Sciences (NCATS), 2022)
# The other results are listed elsewhere or left out. These are further read-outs of the screen, such as a control signal, another cell line or another target. No call is given for them.
# Assays:
# Test in all cases: Primary Screen for Target Class Profiling of Small Molecule Inhibitors of Methyltransferases
# [1] = molecular target: Glycine N-methyltransferase (Homo sapiens) (UniProt Q14749); settings: purified enzyme, MTase-Glo SAH luminescence; measured here: GNMT inhibition; at 40 µM; stronger effect = lower value
# In short: (§1)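 Each enzyme was assayed with SAM and its substrate. SAH formation detected by MTase-Glo luminescence; single-point 40 uM screen[…].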
# [2] = molecular target: Guanidinoacetate N-methyltransferase (Homo sapiens) (UniProt Q14353); settings: purified enzyme, MTase-Glo SAH luminescence; measured here: GAMT inhibition; at 40 µM; stronger effect = lower value
# In short: as §1
# [3] = molecular target: Histamine N-methyltransferase (Homo sapiens) (UniProt P50135); settings: purified enzyme, MTase-Glo SAH luminescence; measured here: HNMT inhibition; at 40 µM; stronger effect = lower value
# In short: as §1
# [4] = molecular target: Nicotinamide N-methyltransferase (Homo sapiens) (UniProt P40261); settings: purified enzyme, MTase-Glo SAH luminescence; measured here: NNMT inhibition; at 40 µM; stronger effect = lower value
# In short: as §1
# [5] = molecular target: Phenylethanolamine N-methyltransferase (Homo sapiens) (UniProt P11086); settings: purified enzyme, MTase-Glo SAH luminescence; measured here: PNMT inhibition; at 40 µM; stronger effect = lower value
# In short: as §1
# % is set by controls: 0 for no effect and ±100 for the full control effect.
SMILES,"activity change, negative = inhibition [1] [%]","activity change, negative = inhibition [2] [%]","activity change, negative = inhibition [3] [%]","activity change, negative = inhibition [4] [%]","activity change, negative = inhibition [5] [%]"
Cc1[nH]nc2ccc(-c3cncc(OC[C@@H](N)Cc4c[nH]c5ccccc45)c3)cc12,-25.1,3.17,-50.5,-48.5,-21.1
CC(=O)O[C@H]1C[C@@H](C)O[C@H]2O[C@@H]3CC4CC[C@@H]5C(CC[C@]6(C)[C@@H](C7=CC(=O)OC7)CC[C@]56O)[C@@]4(C=O)C[C@H]3O[C@]21O (stereo not given in full),2.15,4.27,5.39,-8.31,0.116
Cc1ccccc1NC(=O)N1Cc2ccccc2-n2cccc2C1C (stereo not given),5.64,0,-0.69,1.16,6.22
CSc1ccc(C2c3cccn3-c3ccccc3CN2C(=O)Nc2cccc(Cl)c2C)cc1 (stereo not given),0.147,1.23,3.23,0.735,4.9
N#CC1(c2ccccc2)CCN(C(=O)c2cn(-c3ccccc3)nn2)CC1,-7.94,-5.18,-3.41,-11,-7.7
Cc1cccc(NC(=O)N2Cc3ccccc3-n3cccc3C2c2ccccc2)c1C (stereo not given),6.88,0,-2.09,0.636,5.09
CNCc1cn(C[C@H]2CC3CCN2C[C@@H]3C(=O)Nc2ccccc2)nn1 (stereo not given in full),-7.97,-7.47,-5.29,-10.1,-2.55
Cc1ccc(CNC(=O)N2Cc3ccccc3-n3cccc3C2c2ccccc2)cc1 (stereo not given),8.73,0,0.488,3.41,6.47
Clc1ccc(OCC2=NCCN2)cc1Cl,3.76,6.01,1.18,-11.1,-10.4
Cc1o[nH]c(=O)c1CC(N)C(=O)O (stereo not given),-1.19,7.88,5.62,-6.56,0.706
CCOc1ccc(C2c3cccn3-c3ccccc3CN2C(=O)Nc2ccccc2C(F)(F)F)cc1 (stereo not given),-1.1,0,6.46,11.3,8.68
COc1ccc(C2c3cccn3-c3ccccc3CN2C(=O)Nc2cc(F)ccc2F)cc1OC (stereo not given),6.89,4.33,1.46,-5.41,2.4
Cc1ccc(NC(=O)N2Cc3ccccc3-n3cccc3C2c2ccccc2Cl)c(C)c1 (stereo not given),2.89,-0.816,-7.56,-1.11,-0.881
COc1ccc(C2c3cccn3-c3ccccc3CN2C(=O)Nc2ccccc2C)cc1 (stereo not given),-5.23,0.384,2.9,1.94,6.88
CC1=CC2OC3[C@H](O)C[C@@](C)([C@]34CO4)[C@@]2(CO)[C@H](O)C1=O (stereo not given in full),2.59,-8.62,0.815,-17.9,0.125
O=C(Oc1ccc([N+](=O)[O-])cc1)N1CCN(Cc2cccc(Oc3ccccc3)c2)CC1,-3.21,-7.41,10.1,-23.1,-8.93
Cn1nc(-c2cccs2)cc1[C@H]1CN2CC[C@H]1C[C@@H]2CNS(C)(=O)=O,-4.03,0.804,-2.64,-1.46,1.38
Cc1cccc(C2c3cccn3-c3ccccc3CN2C(=O)NC(C)C)c1 (stereo not given),10.4,0.886,6.77,1.81,6.96
CN1C(=O)[C@]23CC4C(C)(C)[C@@]5(C[C@@]41CN2CC[C@@]3(C)O)C(=O)Nc1c5ccc2c1OC=CC(C)(C)O2 (stereo not given in full),4.07,6.93,7.46,-9.12,6.58
CN(C(=O)C(c1ccccc1)c1ccccc1)[C@H](CN1CC[C@H](O)C1)c1ccccc1,-5.14,2.29,3.28,-13.9,-2.9
COc1ccc(C(CN(C)C)C2(O)CCCCC2)cc1 (stereo not given),4.62,10.4,-1.26,-1.51,9.73

SMILES,"activity change, negative = inhibition [1] [%]","activity change, negative = inhibition [2] [%]","activity change, negative = inhibition [3] [%]","activity change, negative = inhibition [4] [%]","activity change, negative = inhibition [5] [%]"
Cc1noc(-c2ccc(N3CC4CC(C3)c3cccc(=O)n3C4)nc2)n1 (stereo not given),-4.03,-5.25,0.199,-4.55,-1.3
CN1[C@H]2C[C@H](OC(=O)[C@H](CO)c3ccccc3)C[C@@H]1[C@@H](O)C2,3.32,0.387,10.2,-7.61,4.37
CN1C(=O)N(c2ccc(C#N)c(C(F)(F)F)c2)C(=O)[C@@]1(CO)c1ccccc1,6.4,9.71,6.62,-3.97,4.55
O=C(NCc1ccccc1)N1Cc2ccccc2-n2cccc2C1c1cccc(Cl)c1 (stereo not given),12.5,0,7.9,-2.89,6.3
O=C(Nc1cccc(C(F)(F)F)c1)N1Cc2ccccc2-n2cccc2C1c1cccs1 (stereo not given),5.56,0,-3.97,1.3,3.01
O=C(Nc1ccc(F)cc1)N1Cc2ccccc2-n2cccc2C1c1ccccc1 (stereo not given),7.31,1.68,5.13,-0.174,7.18
CS[C@]1(CO)C(=O)N2[C@H]3C(=CC=C[C@@H]3O)C[C@@]2(SC)C(=O)N1C,0,8.52,10.8,-4.19,5.6
COC(=O)CCNC(=O)N1Cc2ccccc2-n2cccc2C1c1ccc(C(C)C)cc1 (stereo not given),-6.74,0,4.77,0.218,3.99
CC(C)C1c2cccn2-c2ccccc2CN1C(=O)NCc1ccccc1 (stereo not given),1.55,0,2.98,-2.17,5.08
Cc1ccccc1NC(=O)N1Cc2ccccc2-n2cccc2C1C(C)C (stereo not given),-0.291,0,-1.8,3.4,5.36
CCOc1ccccc1NC(=O)N1Cc2ccccc2-n2cccc2C1C(C)C (stereo not given),-7.63,4.66,2.31,-4.6,2.02
CCOc1ccccc1NC(=O)N1Cc2ccccc2-n2cccc2C1c1ccc(CC)cc1 (stereo not given),10.2,2.51,4,-0.007,6.91
O=c1ccc(-c2ccccc2F)c2n1C[C@H]1C[C@@H]2CN(Cc2ccc(CO)o2)C1,-14.1,-8.11,-5.4,-16.1,-4.85
NNC(=O)c1nn(Cc2ccc(Cl)cc2Cl)c2ccccc12,-15.7,-3.13,-10.6,-46,-25.3
C=C[C@H]1CN2CC[C@H]1C[C@@H]2CNC(=O)N1CCOCC1,-6.17,-12.7,-8.49,-17.8,-14.6
CCCNC(=O)N1Cc2ccccc2-n2cccc2C1c1cccc(Cl)c1 (stereo not given),8.51,2.66,4.17,-0.093,6.13
COc1ccc(-c2ccc3n(c2=O)C[C@H]2C[C@@H]3CN(S(C)(=O)=O)C2)cc1,-1.91,0.57,1.28,-1.21,2.97
c1ccc(C2CC2)c(OCC2=NCCN2)c1,-0.913,10.7,2.22,-17.3,3.21
CCc1ccc(C2c3cccn3-c3ccccc3CN2C(=O)Nc2ccccc2C)cc1 (stereo not given),12.9,3.08,6.98,0.545,6.9
CCCNC(=O)N1Cc2ccccc2-n2cccc2C1c1ccc(C)cc1 (stereo not given),-1.45,0.32,2.09,-2.08,4.64
COCCO[C@H]1COCCN(C2CCOCC2)C1,-3.54,-2.82,-0.367,-1.66,-0.109

SMILES,"activity change, negative = inhibition [1] [%]","activity change, negative = inhibition [2] [%]","activity change, negative = inhibition [3] [%]","activity change, negative = inhibition [4] [%]","activity change, negative = inhibition [5] [%]"
CN1C(=O)c2ccccc2NC(=O)C1Cc1ccccc1 (stereo not given),3.36,2.65,9.03,-13.2,-1.37
Cc1ccc(C)c(NC(=O)N2Cc3ccccc3-n3cccc3C2c2ccc(Cl)cc2)c1 (stereo not given),1.93,0,0.374,5.41,6.17
NCC(CP(=O)(O)O)c1ccc(Cl)cc1 (stereo not given),12.5,12.2,14.6,-5.81,0.911
CC(=O)OC[C@]12C[C@H](O)C(C)=C[C@H]1O[C@@H]1[C@H](O)[C@@H](O)[C@@]2(C)[C@]12CO2,0.5,4.61,3.68,-9.59,0.426
COc1ccc(NC(=O)N2Cc3ccccc3-n3cccc3C2c2ccc(F)cc2)cc1OC (stereo not given),-0.87,6.4,5.92,-2.25,5.98
CCC1(N2CCN(C(=O)Cc3c[nH]c4ccccc34)CC2)CCN(S(C)(=O)=O)C1 (stereo not given),-4.82,-4.51,-1.86,-9.1,9.29
C/C=C1/CN2CC[C@]34C(=Nc5ccc(OC)cc53)C2C[C@@H]1C4(CO)C(=O)OC (stereo not given in full),-0.491,-5.12,-16.3,-16.2,0.649
COc1ccc(NC(=O)N2Cc3ccccc3-n3cccc3C2c2ccc(SC)cc2)cc1 (stereo not given),0.471,0,7.63,5.35,5.41
O=C(Nc1ccc(F)cc1F)N1Cc2ccccc2-n2cccc2C1c1cccs1 (stereo not given),5.08,3.92,-5.48,-13.7,-0.57
CC(=O)OC[C@]12C[C@H](OC(=O)CC(C)C)C(C)=C[C@H]1O[C@@H]1[C@H](O)[C@@H](O)[C@@]2(C)[C@]12CO2,0,3.33,2.71,-11.3,3.88
c1cncc(C2=NOC3(CCN(C4COC4)CC3)C2)c1,-1.44,-5.58,0.465,-3.39,-2.98
O=C(Cc1ccc(Cl)c(Cl)c1)N1CCCCC1CN1CCCC1 (stereo not given),-6.36,7.63,-4.77,-11.1,-2.01
COc1cccc(NC(=O)N2Cc3ccccc3-n3cccc3C2c2ccccc2Cl)c1 (stereo not given),9.16,1.7,2.16,2.64,6.13
C#CCOC(=O)C1=CCCN(C)C1,-3.33,5.84,0.093,-2.17,7.91
OCc1nnc2n1-c1ccc(Cl)cc1C(c1ccccc1Cl)=NC2,2.03,7.3,5.58,-9.87,3.28
NC(=O)CN1C(=O)CO[C@H]2CN(Cc3ccccn3)C[C@H]21,-0.931,1.72,1.18,-2.95,-3.44
Cc1cc(CN2CCC23Cc2ccccc2NC3=O)no1 (stereo not given),-7.1,-6.17,-3.57,-9.36,-11
COCCN1C(=O)CS(=O)(=O)C12CCNCC2,-3.71,-5.88,-2.44,-7.85,-1.59
CNCC(O)c1ccc(O)cc1 (stereo not given),3.65,9.47,1.67,-2.24,-26.2
Cc1nc(-c2cccs2)cc([C@H]2CN3CC[C@H]2C[C@@H]3COC(=O)Nc2ccc(C(C)C)cc2)n1,-9.64,-11.2,-15.3,-28.5,-17.9
N#Cc1cn([C@@H]2O[C@H](CO)[C@H](O)[C@@H]2O)c2ncnc(N)c12,-101,-102,-98,-103,-101
